# Assay results taken from publication PMC7819943, “Rice protein-binding microarrays: a tool to detect cis-acting elements near promoter regions in rice”.
# Some of the results follow.
# Target: T1, OsWOX13 (Oryza sativa, UniProt Q5QMM3 1-267)
# T1 sequence: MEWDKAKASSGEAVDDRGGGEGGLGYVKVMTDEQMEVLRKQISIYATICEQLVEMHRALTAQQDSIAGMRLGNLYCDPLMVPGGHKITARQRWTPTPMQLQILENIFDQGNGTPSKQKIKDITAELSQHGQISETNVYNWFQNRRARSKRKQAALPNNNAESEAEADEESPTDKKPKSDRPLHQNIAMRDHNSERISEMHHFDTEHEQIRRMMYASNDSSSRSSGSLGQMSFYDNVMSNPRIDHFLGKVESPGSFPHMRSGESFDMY
# Assay: protein-binding microarray (RPBM); PBS, 2% BSA, 51.3 ng/ul salmon testes DNA, 50 uM zinc acetate, 200 nM TF, 25 C, 1 h; high values mean tight binding
# Conditions: protein: recombinant; tags: N-terminal polyhistidine and DsRed monomer fusion (pET32a); label: CyDye5-dUTP incorporated in the synthesized complementary strand; 3' TTTTT single-stranded linker to array surface; dsDNA, one strand shown
# Method in brief: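 For the binding signal, per-feature fluorescence intensity was read in arbitrary units on an Axon 4000B scanner. Before scanning, a 2% BSA-blocked custom Agilent array made double-stranded with Cy5-dUTP was washed after 1 h at 25 °C with 200 nM protein and 50 µM zinc acetate. The proteins were Ni–NTA-purified transcription factors with N-terminal polyhistidine and DsRed fusions, expressed in E. coli BL21-CodonPlus.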
row,Sequence,binding signal
1,TGGTGTGATTATGGTGAATAAGAGCAACGACCGGCTTCGGCGGAGTCACCTAGTGCAG,12800 fluorescence intensity (a.u.)
2,AAAATAAATAAAATCATTTCCTTGCTAAAATTGAAAGCAACGGAGTCACCTAGTGCAG,4560 fluorescence intensity (a.u.)
3,AGAAATTGTGTGATTTATTGTAGTGTGTAGAAATTTATAGCGGAGTCACCTAGTGCAG,11700 fluorescence intensity (a.u.)
4,TTAATCGCCAAATTATCCTAATCAATCCAAGGGAGAGAGTCGGAGTCACCTAGTGCAG,12000 fluorescence intensity (a.u.)
5,TGTGTGATTGCTGTTCTTCTCTCTCGCGTCCACGTTCGCGCGGAGTCACCTAGTGCAG,29800 fluorescence intensity (a.u.)
6,AAATCAGAAATCAATTAATACGCCAAGGGGAAGATCATGCCGGAGTCACCTAGTGCAG,6910 fluorescence intensity (a.u.)
7,TTTCAATCCAACGGTGATGAGCGCGACCGCTCAATTTGCACGGAGTCACCTAGTGCAG,7210 fluorescence intensity (a.u.)
8,CAGTTCATTTCTGAAATTGATTTTAACTTTTAAGAAAGGTCGGAGTCACCTAGTGCAG,8880 fluorescence intensity (a.u.)
9,ATTCCTAATGTTTGACTGACAGGTGGGGTCTGGTGAATTCCGGAGTCACCTAGTGCAG,9010 fluorescence intensity (a.u.)
10,TCAAATAAATTGATGGTAAACTCAGGGATATATAAAGAATCGGAGTCACCTAGTGCAG,24300 fluorescence intensity (a.u.)
11,AATAAATCAATTATTAACCTTATATATCCATAAGGGTATTCGGAGTCACCTAGTGCAG,24300 fluorescence intensity (a.u.)
12,GTTGTATGATTGACACTAGATCGAGAAAAGGTGCGACAAACGGAGTCACCTAGTGCAG,23500 fluorescence intensity (a.u.)
13,CTAATTAAGAAATTGCAATCACTGTCTGTATGTAACATCACGGAGTCACCTAGTGCAG,31000 fluorescence intensity (a.u.)
14,CATAAAAGTAGATTTGACGTAACTACATATGCAGTTGAGCCGGAGTCACCTAGTGCAG,4250 fluorescence intensity (a.u.)
15,CTACACGATTGATACCTACAGCCACGCCGTCGAATCCGTTCGGAGTCACCTAGTGCAG,12600 fluorescence intensity (a.u.)
16,TTAGATTTGTAGCTATCGGATTGTCTTGAGATTTGAGTATCGGAGTCACCTAGTGCAG,6330 fluorescence intensity (a.u.)
17,TTGATTTACAAGTTAGAAACCAACTCCTGTTGATAACTATCGGAGTCACCTAGTGCAG,15200 fluorescence intensity (a.u.)
18,AGTAATTACAAATCTACCCTATAATTCACCAACCCACTCTCGGAGTCACCTAGTGCAG,20800 fluorescence intensity (a.u.)
19,AACAATGCGTGCGATGCTTGATTGATGCGTGGGACGACATCGGAGTCACCTAGTGCAG,9450 fluorescence intensity (a.u.)
20,TCTAAATGTAATTATATTTTACTTTCACAAAACTCTAAAACGGAGTCACCTAGTGCAG,4980 fluorescence intensity (a.u.)
21,AGCAAAATTCTCTCAATATGTGATTGCATGATAAATATGTCGGAGTCACCTAGTGCAG,3220 fluorescence intensity (a.u.)

row,Sequence,binding signal
1,CCATAACGTGGAAATTTCGTTGATAGCTCGCTAGCTGCAACGGAGTCACCTAGTGCAG,5920 fluorescence intensity (a.u.)
2,AGGCAAAATTGACAAAGAGATAAGAAACCATCAAAATAATCGGAGTCACCTAGTGCAG,3500 fluorescence intensity (a.u.)
3,GGTAAACTGTCAGTTTAAATTTGTTATGTTTTCATTGTGTCGGAGTCACCTAGTGCAG,46000 fluorescence intensity (a.u.)
4,AACTTGAACGATAATTATGTTCGATTTGTAAAATTCTAATCGGAGTCACCTAGTGCAG,4700 fluorescence intensity (a.u.)
5,ATGACGTACAATCAAGGACGCGCAATACAGATAATTAAGCCGGAGTCACCTAGTGCAG,7000 fluorescence intensity (a.u.)
6,TGCGTGATGATATATTGACTGCTCCATCTCTCGTCTCGCGCGGAGTCACCTAGTGCAG,17900 fluorescence intensity (a.u.)
7,ATATTTATAATTAATTTAATAGCTAATTCATACTCCAATACGGAGTCACCTAGTGCAG,27300 fluorescence intensity (a.u.)
8,GCGTGATTGACGCGGAACCCGAGGTGGACGGACTATGGAACGGAGTCACCTAGTGCAG,38900 fluorescence intensity (a.u.)
9,TATATATTGATTAAAATTTATAAAACTATTGATCAAATTACGGAGTCACCTAGTGCAG,4060 fluorescence intensity (a.u.)
10,ATATTTAAACAGAAACCACTTAATTAAAACTGAGACGAAACGGAGTCACCTAGTGCAG,6060 fluorescence intensity (a.u.)
11,CTCTCGATTAGATATATTTACATGCCTCTTCCGAATACATCGGAGTCACCTAGTGCAG,4500 fluorescence intensity (a.u.)
12,TTGACTGATAGAAATAAGCACGATAAAATAGCCGTGGAGTCGGAGTCACCTAGTGCAG,26600 fluorescence intensity (a.u.)
13,AGGATAATTATTCCGTCGGCCGACCACCAAGAAACTACCACGGAGTCACCTAGTGCAG,15200 fluorescence intensity (a.u.)
14,ATACTCTACTCAATTAACGATAGACTAACTTGTTCTACGTCGGAGTCACCTAGTGCAG,16000 fluorescence intensity (a.u.)
15,TTAATTAAATATTAATTGTTTTGAACTCTTGGATGAATACCGGAGTCACCTAGTGCAG,32000 fluorescence intensity (a.u.)
16,GGGCTTAATTAATTGCTGGGATAATCACGATCGGATTCAGCGGAGTCACCTAGTGCAG,34600 fluorescence intensity (a.u.)
17,AATTTAACTTTAATTTCAAATTTTAAATTTTGGATACGGCCGGAGTCACCTAGTGCAG,13200 fluorescence intensity (a.u.)
18,CTTTGTAGACTGACAGTGATAGTATTGTACTGCTATACGTCGGAGTCACCTAGTGCAG,9250 fluorescence intensity (a.u.)
19,TATTTAATCAAACTAATTTGGTATCTTAGATGTTGCTAATCGGAGTCACCTAGTGCAG,19600 fluorescence intensity (a.u.)
20,CATATAGATTTAACATTGGTTTTATCACAAAACTATAACTCGGAGTCACCTAGTGCAG,3770 fluorescence intensity (a.u.)
21,CACAACCAACTGATTGAAGACGTCCACGTGCTTCCTAAGACGGAGTCACCTAGTGCAG,37600 fluorescence intensity (a.u.)
